# Test results from the supplement of paper PMC8728848.
# Some of the results follow.
# What was measured:
# Experiment in all cases: glycan array binding signal (z-score within array); higher = stronger binding
# Details in all cases: glycan notation: IUPAC condensed, linker removed
# [1] = biological target: GalNAc3S(b1-4)[Fuc(a1-3)]GlcNAc
# Procedure, shortened: (§1)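 Negative Z-scores can be read as non-binding. The Z-score is calculated within each array and then averaged across arrays of one protein sequence at different concentrations or buffers and across linkers. Arrays, 3228 in all, were curated from the Consortium for Functional Glycomics database and kept only where the protein sequence was available.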
# [2] = biological target: GalNAc4S6S(b1-4)GlcNAc
# Procedure, shortened: as §1
# [3] = biological target: GalNAc6S(b1-4)GlcNAc
# Procedure, shortened: as §1
# [4] = biological target: Glc(a1-4)Glc
# Procedure, shortened: as §1
# [5] = biological target: Glc(a1-4)Glc(a1-4)Glc(a1-4)Glc
# Procedure, shortened: as §1
# [6] = biological target: Glc(a1-6)Glc(a1-6)Glc
# Procedure, shortened: as §1
# [7] = biological target: Glc(a1-6)Glc(a1-6)Glc(a1-6)Glc
# Procedure, shortened: as §1
# [8] = biological target: Glc(b1-4)Glc
# Procedure, shortened: as §1
# [9] = biological target: Glc(b1-6)Glc
# Procedure, shortened: as §1
# [10] = biological target: GlcA(b1-3)Gal
# Procedure, shortened: as §1
# [11] = biological target: GlcA(b1-3)GlcNAc
# Procedure, shortened: as §1
# [12] = biological target: GlcA(b1-6)Gal
# Procedure, shortened: as §1
# [13] = biological target: GlcA3S(b1-3)Gal(b1-4)GlcNAc(b1-2)Man
# Procedure, shortened: as §1
# [14] = biological target: GlcA3S(b1-3)Gal(b1-4)GlcNAc(b1-3)Gal(b1-4)Glc
# Procedure, shortened: as §1
# [15] = biological target: GlcNAc(a1-3)Gal(b1-4)GlcNAc
# Procedure, shortened: as §1
# [16] = biological target: GlcNAc(a1-4)Gal(b1-3)GlcNAc
# Procedure, shortened: as §1
# [17] = biological target: GlcNAc(a1-4)Gal(b1-4)GalNAc
# Procedure, shortened: as §1
# [18] = biological target: GlcNAc(a1-4)Gal(b1-4)GlcNAc
# Procedure, shortened: as §1
# [19] = biological target: GlcNAc(a1-4)Gal(b1-4)GlcNAc(b1-3)Gal(b1-4)Glc
# Procedure, shortened: as §1
# [20] = biological target: GlcNAc(a1-4)Gal(b1-4)GlcNAc(b1-3)Gal(b1-4)GlcNAc
# Procedure, shortened: as §1
# [21] = biological target: GlcNAc(a1-4)Gal(b1-4)GlcNAc(b1-3)Gal(b1-4)GlcNAc(b1-3)Gal(b1-4)GlcNAc
# Procedure, shortened: as §1
# [22] = biological target: GlcNAc(a1-4)Gal(b1-4)GlcNAc(b1-3)Gal(b1-4)[Fuc(a1-3)]GlcNAc(b1-3)Gal(b1-4)[Fuc(a1-3)]GlcNAc
# Procedure, shortened: as §1
# [23] = biological target: GlcNAc(a1-6)Gal(b1-4)GlcNAc
# Procedure, shortened: as §1
# [24] = biological target: GlcNAc(b1-2)Gal(b1-3)GalNAc
# Procedure, shortened: as §1
# [25] = biological target: GlcNAc(b1-2)Man(a1-3)[GlcNAc(b1-2)Man(a1-6)]Man(b1-4)GlcNAc(b1-4)GlcNAc
# Procedure, shortened: as §1
# [26] = biological target: GlcNAc(b1-2)Man(a1-3)[GlcNAc(b1-2)Man(a1-6)]Man(b1-4)GlcNAc(b1-4)[Fuc(a1-6)]GlcNAc
# Procedure, shortened: as §1
# [27] = biological target: GlcNAc(b1-2)Man(a1-3)[GlcNAc(b1-4)][GlcNAc(b1-2)Man(a1-6)]Man(b1-4)GlcNAc(b1-4)GlcNAc
# Procedure, shortened: as §1
# [28] = biological target: GlcNAc(b1-2)Man(a1-3)[GlcNAc(b1-4)][GlcNAc(b1-2)Man(a1-6)]Man(b1-4)GlcNAc(b1-4)[Fuc(a1-6)]GlcNAc
# Procedure, shortened: as §1
# [29] = biological target: GlcNAc(b1-2)[GlcNAc(b1-4)]Man(a1-3)[GlcNAc(b1-2)Man(a1-6)]Man(b1-4)GlcNAc(b1-4)GlcNAc
# Procedure, shortened: as §1
# [30] = biological target: GlcNAc(b1-2)[GlcNAc(b1-4)]Man(a1-3)[GlcNAc(b1-4)][GlcNAc(b1-2)Man(a1-6)]Man(b1-4)GlcNAc(b1-4)GlcNAc
# Procedure, shortened: as §1
# [31] = biological target: GlcNAc(b1-2)[GlcNAc(b1-4)]Man(a1-3)[GlcNAc(b1-4)][GlcNAc(b1-2)[GlcNAc(b1-6)]Man(a1-6)]Man(b1-4)GlcNAc(b1-4)GlcNAc
# Procedure, shortened: as §1
# [32] = biological target: GlcNAc(b1-2)[GlcNAc(b1-4)]Man(a1-3)[GlcNAc(b1-4)][GlcNAc(b1-2)[GlcNAc(b1-6)]Man(a1-6)]Man(b1-4)GlcNAc(b1-4)[Fuc(a1-6)]GlcNAc
# Procedure, shortened: as §1
# [33] = biological target: GlcNAc(b1-2)[GlcNAc(b1-6)]Man(a1-6)[GlcNAc(b1-2)Man(a1-3)]Man(b1-4)GlcNAc(b1-4)GlcNAc
# Procedure, shortened: as §1
# [34] = biological target: GlcNAc(b1-2)[GlcNAc(b1-6)]Man(a1-6)[GlcNAc(b1-2)Man(a1-3)]Man(b1-4)GlcNAc(b1-4)[Fuc(a1-6)]GlcNAc
# Procedure, shortened: as §1
# [35] = biological target: GlcNAc(b1-2)[GlcNAc(b1-6)]Man(a1-6)[GlcNAc(b1-4)][GlcNAc(b1-2)Man(a1-3)]Man(b1-4)GlcNAc(b1-4)GlcNAc
# Procedure, shortened: as §1
# [36] = biological target: GlcNAc(b1-3)Fuc
# Procedure, shortened: as §1
# [37] = biological target: GlcNAc(b1-3)Gal
# Procedure, shortened: as §1
# [38] = biological target: GlcNAc(b1-3)Gal(b1-3)GalNAc
# Procedure, shortened: as §1
binder,measurement,setting,value
Cohesin-mDC-ASGPR (Macaca mulatta) (protein) LDITSHHHHHHDDLDAVRIKVDTVNAKPGDTVRIPVRFSGIPSKGIANCDFVYSYDPNVLEIIEIEPGDIIVDPNPDKSFDTAVYPDRKIIVFLFAEDSGTGAYAITKDGVFATIVAKVKEGAPNGLSVIKFVEVGGFANNDLVEQKTQFFDGGVNVGDTTEPATPTTPVTTPTTTDDLDAASSQNSKFQRDLVTLRTDFSNFTSNTVAEIQALTSQGSSVEEMIASLKAEVEVIKQEQQAVHSEMLLRVQRLMQDLNKLTCQVATLKNNASTERTCCPVNWVEHQDSCYWFSRSGMPWAEAEKHCQLENAHLVVINSREEQNFVQEHLSFAYTWMGLSDREGAWKWVDGTDYETGFQNWKPGQPDDWQGHGLGGGEDCAHFHPDGRWNDDVCQRPYYWVCEAGLTQASQESH,glycan array binding signal (z-score),[1],-0.416
same,glycan array binding signal (z-score),[2],-0.416
same,glycan array binding signal (z-score),[3],3.82
same,glycan array binding signal (z-score),[4],-0.406
same,glycan array binding signal (z-score),[5],-0.409
same,glycan array binding signal (z-score),[6],-0.394
same,glycan array binding signal (z-score),[7],-0.405
same,glycan array binding signal (z-score),[8],-0.397
same,glycan array binding signal (z-score),[9],-0.376
same,glycan array binding signal (z-score),[10],-0.43
same,glycan array binding signal (z-score),[11],-0.402
same,glycan array binding signal (z-score),[12],-0.419
same,glycan array binding signal (z-score),[13],-0.429
same,glycan array binding signal (z-score),[14],-0.405
same,glycan array binding signal (z-score),[15],-0.4
same,glycan array binding signal (z-score),[16],-0.38
same,glycan array binding signal (z-score),[17],-0.403
same,glycan array binding signal (z-score),[18],-0.423
same,glycan array binding signal (z-score),[19],-0.43
same,glycan array binding signal (z-score),[20],-0.428
same,glycan array binding signal (z-score),[21],-0.419
same,glycan array binding signal (z-score),[22],-0.334
same,glycan array binding signal (z-score),[23],-0.371
same,glycan array binding signal (z-score),[24],-0.382
same,glycan array binding signal (z-score),[25],-0.414
same,glycan array binding signal (z-score),[26],-0.401
same,glycan array binding signal (z-score),[27],-0.417
same,glycan array binding signal (z-score),[28],-0.415
same,glycan array binding signal (z-score),[29],-0.422
same,glycan array binding signal (z-score),[30],-0.413
same,glycan array binding signal (z-score),[31],-0.419
same,glycan array binding signal (z-score),[32],-0.432
same,glycan array binding signal (z-score),[33],-0.398
same,glycan array binding signal (z-score),[34],-0.415
same,glycan array binding signal (z-score),[35],-0.42
same,glycan array binding signal (z-score),[36],-0.425
same,glycan array binding signal (z-score),[37],-0.398
same,glycan array binding signal (z-score),[38],-0.317
